According to PubChem BioAssay AID1347073 (National Center for Advancing Translational Sciences (NCATS), 2019):
About 200 (0.44%) of roughly 45,000 compounds were called active. Not shown: some 7% with an inconclusive outcome. The call rests on the fitted dose curve; in most records, active means well fitted activation curve with a large enough effect; inconclusive means small, poorly fitted or top-dose-only effect; inactive means no such curve, though single readings can be large or run the other way. The list shows a part of the results.

Test: qHTS of TDP-43 Inhibitors: NCGC Sytravon Library Screen; further: 0% is about no effect; nearly all actives have a fitted effect of over 55% in size
Settings: yeast TDP-43 toxicity rescue, BacTiter-Glo growth, 24 h; series mostly up to 46.1 µM; growth rescue (activation): at the top concentration
Outline: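 TDP-43-expressing yeast, pregrown in raffinose, seeded at OD600 0.02 in galactose medium with compound for 24 hr at 30 deg C. Growth read by BacTiter-Glo luminescence, so rescue of toxicity appears as activation.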

Row | Structure (SMILES) | growth rescue (activation)
1 | CC(C)NC(=S)N/N=C/c1sc(N2CCCCC2)nc1-c1cccs1 | inactive: 30.3%
2 | Cc1ccc(C(=O)N/N=c2\sc3ccccc3n2C)cc1 | inactive: 11.9%
3 | CC12Cc3ccc4ccccc4c3C=C1C[N+](C)(C)C2 (centres undefined) | inactive: -8.94%
4 | O=C(CN1C(=O)CSc2ccc(S(=O)(=O)N3CCOCC3)cc21)NCCCN1CCc2ccccc2C1 | inactive: -14.2%
5 | CC(C)OCCCn1c(=NC(=O)c2cccs2)c(C#N)cc2c(=O)n3ccccc3nc21 | inactive: 11%
6 | Cc1cc(Cl)ccc1NC(=S)NCc1ccc(S(N)(=O)=O)cc1 | inactive: -5.84%
7 | CCOC(=O)C1CCN(c2cc(C)nc3ccc(OC)cc23)CC1 | inactive: 1.97%
8 | O=C(c1cccc(C(=O)N2CCN(c3ccccc3F)CC2)c1)N1CCN(c2ccccc2F)CC1 | inactive: -22.3%
9 | O=C(CSc1nc2ccccc2c(=O)n1-c1ccccc1)NCC1CCCO1 (centres undefined) | inactive: -8.22%
10 | CCOc1ccc2ccccc2c1CNc1nnnn1C | inactive: 14.4%
11 | CC(C)C1NC(C(=O)O)Cc2c1[nH]c1ccccc21 (centres undefined) | inactive: 1.72%
12 | CCc1nc2ccc(C(=O)NCCOc3ccc(OC)cc3)cn2c1N(C)Cc1ccc(N(C)C)cc1 | inactive: 4.44%
13 | CCCCC(NC(C)=O)c1nc2ccccc2n1CCCC (centres undefined) | inactive: 7.35%
14 | COc1ccccc1C(=O)Nc1ccc2c3c(cccc13)CC2 | inactive: 8.52%
15 | CC(C)CC(N)c1csc(Nc2ccc(C(=O)c3ccccc3)cc2)n1 (centres undefined) | inactive: 18.3%
16 | CC(C)Oc1cccc(C(=O)C2CCCN(C(=O)c3csnn3)C2)c1 (centres undefined) | inactive: 5.12%
17 | CCOc1cc(C2NC(=O)NC(O)(C(F)(F)F)C2C(=O)c2ccc(OC)cc2)ccc1O (centres undefined) | inactive: 1.16%
18 | Cc1c(NC(=S)N/N=C/C=C/c2ccccc2)c(=O)n(-c2ccccc2)n1C | inactive: 12.2%
19 | CCOC(=O)c1c(NC(=O)CN2C(=O)NC(C)(c3ccc(OC(F)F)cc3)C2=O)sc(C)c1C (centres undefined) | inactive: 4.48%
20 | CCCc1cc2c(OC(=O)CC)c(-c3ccc(C(=O)OCC)o3)c(=O)oc2cc1OC | inactive: -6.62%
21 | CCn1c(=O)c(C(=O)CN2CCN(Cc3ccc4c(c3)OCO4)CC2)c(N)n(Cc2ccccc2)c1=O | inactive: -1.65%
22 | CCN(CC)S(=O)(=O)c1cccc(-c2nnc(SCC(=O)N3CCC(C(=O)O)CC3)n2N)c1 | inactive: -13.1%
23 | CCc1cc2c(COC(=O)c3cccc(S(C)(=O)=O)c3)cc(=O)oc2cc1O | inactive: 20.5%
24 | COc1ccc(CN(C)Cc2nc(Cc3ccccc3Cl)no2)cc1OC | inactive: 21%
25 | CC(C)CC1Nc2ccc(C(=O)NCCCN3CCOCC3)cc2NC1=O (centres undefined) | inactive: 9.57%
26 | O=C(N/N=C/C1CC=CCC1)c1cc(-c2cccnc2)nc2ccccc12 (centres undefined) | inactive: 14%

Row | Structure (SMILES) | growth rescue (activation)
27 | COc1cc([N+](=O)[O-])ccc1NC(=O)CC1SC(=Nc2ccc(F)cc2)N(CCC2=CCCCC2)C1=O (centres undefined) | inactive: 7.56%
28 | Cc1ccc(CSc2ncnc3c2cnn3-c2ccc(C)cc2)cc1 | inactive: 21.4%
29 | CCc1nc(SCc2ccc(C(=O)OC)o2)n[nH]1 | inactive: -9.95%
30 | COC(=O)c1ccccc1OCCOCCOc1cccc2cccnc12 | inactive: 6.78%
31 | O=C(O)CSc1nc2sc3c(c2c(=O)n1-c1ccccc1)CCC3 | inactive: -28.5%
32 | Cn1c(CNC(=O)c2ccccc2F)nnc1SCC(=O)NCc1ccccc1 | inactive: -4.26%
33 | Cc1nc2ccc(S(=O)(=O)CCC(=O)Nc3ccc(Cl)cc3)cc2s1 | inactive: 1.96%
34 | O=C(O)C(=O)/C(=C\c1ccsc1)c1ccc2ccccc2n1 | inactive: -15.5%
35 | Cc1cccc(NC2=C/C(=N/S(=O)(=O)c3cccs3)c3ccccc3C2=O)c1 | inactive: -10.4%
36 | CC1CCN(c2ccc(C=O)o2)CC1 | inactive: -7.77%
37 | O=C(O)c1cc([N+](=O)[O-])c(N2CCCC2)c([N+](=O)[O-])c1 | inactive: 18.9%
38 | CSCC[C@H](NC(=O)c1ccc(OCC2CCCO2)cc1)c1nc2ccccc2[nH]1 (some centres undefined) | inactive: 15.1%
39 | CCc1c(C)sc2nc3c(C(=O)N4CCOCC4)cc(C(=O)c4cc(F)ccc4O)cn3c(=O)c12 | inactive: 10.8%
40 | O=C1OC(c2ccc3c(c2)OCO3)=N/C1=C\c1ccc(C(=O)O)cc1 | inactive: -3.7%
41 | Cc1ccc(NC(=O)C(=O)Nc2ccccn2)cc1 | inactive: -12.9%
42 | CN(C)CCNc1nc2sc3c(c2c(=O)n1Cc1ccccc1)CCCCC3 | inactive: 5.36%
43 | Cc1nc(Oc2ccc(S(=O)(=O)N3CCOCC3)cc2Cl)c2c3c(sc2n1)CCCC3 | inactive: 12.7%
44 | CC(C)(CN1CCc2ccccc2C1)NS(=O)(=O)c1ccccc1 | inactive: 24.7%
45 | COC(=O)c1[nH]cnc1C(=O)c1ccccc1 | inactive: -1.85%
46 | O=C(COC(=O)c1ccccc1NC(=O)c1ccco1)Nc1ccc2c(c1)OCO2 | inactive: 18%
47 | COc1ccc(C(=O)NCC(=O)OCC(=O)N2CCN(S(=O)(=O)c3ccccc3)CC2)cc1 | inactive: -14.8%
48 | CC1(NC(=O)Nc2cccc3ccccc23)CCS(=O)(=O)C1 (centres undefined) | inactive: -4.72%
49 | O=C1c2ccccc2C(=O)N1CN(C(=O)COc1ccc(Cl)cc1Cl)c1cccc(F)c1 | inactive: 2.86%
50 | CC1CCN(C(=O)CCN2C(=O)/C(=C/c3cccs3)SC2=S)CC1 | inactive: -14.2%
51 | COc1cccc(NC(=O)NC2CCCc3ccccc32)c1 (centres undefined) | inactive: 7.99%
52 | CCCCc1c(C)nc2ccc(C)cc2c1SCCC(=O)O | inactive: 2.09%

Row | Structure (SMILES) | growth rescue (activation)
53 | CN(C)c1ccc(/C=C/C(=O)c2c(O)c3ccccc3oc2=O)cc1 | inactive: -49.4%
54 | COc1ccccc1NC(=O)C1CC(O)CN1C(=O)Oc1ccccc1 (centres undefined) | inactive: 8.22%
55 | CCOC(=O)Cc1csc(NC(=S)NC(=O)CC(C)C)n1 | inactive: 32.2%
56 | COc1ccc(CCNC(=O)Cn2nc(C(=O)O)c3ccccc3c2=O)cc1OC | inactive: -0.753%
57 | O=C(CCl)Nc1ncc(S(=O)(=O)c2ccc([N+](=O)[O-])cc2)s1 | inactive: -4.77%
58 | CC(Sc1nncs1)C(=O)Nc1ccc(Cl)cn1 (centres undefined) | inactive: 7.92%
59 | CC(C)NS(=O)(=O)c1ccc(OCC(=O)N2CCc3ccccc3C2)cc1 | inactive: -1.82%
60 | CC(=O)c1ccc(OCCn2cnc3ccccc32)cc1 | inactive: 11.4%
61 | COc1cccc(-n2c(-c3ccc4[nH]c(C)c(C)c4c3)n[nH]c2=S)c1 | inactive: 9.75%
62 | COc1ccc(N(CC(=O)N2CCN(c3ccc(Cl)cc3)CC2)S(=O)(=O)c2c(C)n[nH]c2C)cc1 | inactive: 19.9%
63 | CCc1ccccc1NCc1cc(=O)oc2cc(C)ccc12 | inactive: 8.69%
64 | COc1cccc(-n2c(SCC(N)=O)nc3c([nH]c4ccccc43)c2=O)c1 | inactive: 14.1%
65 | O=C(Cc1ccc(Cl)cc1Cl)NCc1cccnc1 | inactive: 14.3%
66 | COc1ccc(-c2nnn(CC(=O)N(CCCN3CCOCC3)C(C(=O)NC3CCCC3)c3ccco3)n2)cc1 (centres undefined) | inactive: 10.1%
67 | CCCCN(C=O)c1c(CC)nc2ccc(C(=O)NCCc3ccccn3)cn12 | inactive: -6.53%
68 | Cc1cc(N2CCOCC2)n2cc(-c3ccc(F)cc3)nc2n1 | inactive: -17.1%
69 | Cn1c(=O)c2[nH]c(SCC(=O)c3ccc(F)cc3)nc2n(C)c1=O | inactive: 5.62%
70 | Cn1c(C(C(=O)NCC2CCCO2)N(CCc2ccccc2)C(=O)Cn2nnc3ccccc32)nc2ccccc21 (centres undefined) | inactive: 0.75%
71 | CCOC(=O)c1c(NC(=O)COc2cc(C)ccc2C(C)C)sc(C)c1C | inactive: 1.01%
72 | O=C(CCN1C(=O)/C(=C/c2cccs2)SC1=S)Nc1cccc(O)c1 | inactive: -19.4%
73 | COCCn1c(SCC(=O)N2CCCCCC2)nnc1-c1ccco1 | inactive: -6.09%
74 | CCn1c(Cc2ccc(OC)cc2)nnc1SCc1nc2ccccc2c(=O)[nH]1 | inactive: -19.4%
75 | CC(OC(=O)c1ccc2c(c1)S(=O)(=O)c1ccccc1C2=O)C(N)=O (centres undefined) | inactive: 15.6%
76 | Cc1nn(CC(=O)Nc2cccc(S(N)(=O)=O)c2)c(C)c1[N+](=O)[O-] | inactive: 9.94%
77 | COc1ccc(C(=O)NC2CCN(C(=S)Nc3ccc(C)cc3)CC2)cc1 | inactive: 8.32%
78 | CCCCNC(=O)c1nn2c(C(F)(F)F)cc(-c3ccc(OC)cc3)nc2c1Br | inactive: 0.456%

Row | Structure (SMILES) | growth rescue (activation)
79 | CCOc1cc(/C=N/NC(=O)CCc2n[nH]c(=O)[nH]c2=O)ccc1O | inactive: -4.9%
80 | CC1(C(=O)NS(=O)(=O)c2ccccc2Cl)CCN1C(=O)CC1CCCC1 (centres undefined) | inactive: 12.6%
81 | CCC(=O)N1CCN(c2ccc(NC(=O)COc3cccc(C)c3C)cc2)CC1 | inactive: 18.5%
82 | CC(=O)Nc1ccc(N2C(=O)CSC2c2cccc(Br)c2)cc1 (centres undefined) | inactive: -3.77%
83 | CCOc1ccc(OCC(=O)Nc2ccc(S(=O)(=O)Nc3cc(C)nc(C)n3)cc2)cc1 | inactive: 16%
84 | CN(C)S(=O)(=O)c1cccc(COC(=O)c2ccc3c(c2)OCO3)c1 | inactive: 12.1%
85 | Cc1ccc(S(=O)(=O)NCc2ccc(/C=C(/C#N)C(=O)NCc3ccccc3)o2)cc1 | inactive: 17.3%
86 | CC1Cc2cc(/C(O)=C3/C(=O)C(=O)N(CCN4CCOCC4)C3c3ccc(C(C)C)cc3)ccc2O1 (centres undefined) | inactive: 9.74%
87 | CCOCCCNC(=O)C(Cc1ccccc1)NS(=O)(=O)c1ccc2c(c1)c(=O)n(C)c(=O)n2C (centres undefined) | inactive: -0.799%
88 | N#CC1=C(N)OC2=C(C(=O)CC(c3ccccc3)C2)C1c1ccoc1 (centres undefined) | inactive: -0.494%
89 | COCCNc1nc(Oc2ccc(CC(=O)OC)cc2)c2sc(-c3ccccc3)cc2n1 | inactive: 19.5%
90 | O=C(Nc1ccc2c(c1)OCO2)c1ccccc1 | inactive: -9.53%
91 | COc1ccc(NC(=O)Nc2ccccc2F)cc1Cl | inactive: 1.14%
92 | CCOC(=O)C1(Cc2ccccc2C)CCCN(C(=O)c2ccccn2)C1 (centres undefined) | inactive: 25.7%
93 | CCN(Cc1ccncc1)C(=O)c1ccccc1NS(=O)(=O)c1ccc(F)cc1 | inactive: -14%
94 | O=C(CSc1nnc(-c2ccc(F)cc2)o1)N1CCCCC1 | inactive: 15.3%
95 | CCCC(C)NC(=O)COc1ccc(S(=O)(=O)c2ccc(OCC(=O)NC(C)CCC)cc2)cc1 (centres undefined) | inactive: -7.28%
96 | CN(C)C(CNC(=O)c1ccc(C2SCCS2)cc1)c1ccccc1 (centres undefined) | inactive: 6.33%
97 | CC(C)n1nnnc1SCC(=O)NC1CCCC1 | inactive: -10.3%
98 | CC(NC(=S)Nc1ccc(S(N)(=O)=O)cc1)c1ccc2c(c1)OCO2 (centres undefined) | inactive: 4.18%
99 | COc1ccccc1C(=O)Oc1ccc2ccc(=O)oc2c1 | inactive: -17.1%
100 | O=C(CN1C(=O)NC2(CCOc3ccccc32)C1=O)NCC(F)(F)F (centres undefined) | inactive: -9.77%
101 | CC(=O)Nc1ccc2nc(-c3cccn3C)[nH]c2c1 | inactive: 1.58%
102 | CCOc1ccc(N(CC(=O)NCc2ccco2)C(=O)CCC(=O)Nc2ccccn2)cc1 | inactive: 4.26%
103 | NC(CCc1ccccc1)c1csc(Nc2ccccn2)n1 (centres undefined) | inactive: 11%
104 | Cc1ccc(C)c(Cn2nnc3c(=O)[nH]c(C4CCN(S(=O)(=O)c5ccc(S(=O)(=O)N(C)C)cc5)CC4)nc32)c1 | inactive: -4.06%
